Test results taken from the BET-seq Pho4 binding data (Le et al. 2018).
Some of the results follow. These are noisy estimates, calculated here from bound and input reads.

Target: T1, Pho4 (S. cerevisiae) (UniProt P07270)
T1 sequence: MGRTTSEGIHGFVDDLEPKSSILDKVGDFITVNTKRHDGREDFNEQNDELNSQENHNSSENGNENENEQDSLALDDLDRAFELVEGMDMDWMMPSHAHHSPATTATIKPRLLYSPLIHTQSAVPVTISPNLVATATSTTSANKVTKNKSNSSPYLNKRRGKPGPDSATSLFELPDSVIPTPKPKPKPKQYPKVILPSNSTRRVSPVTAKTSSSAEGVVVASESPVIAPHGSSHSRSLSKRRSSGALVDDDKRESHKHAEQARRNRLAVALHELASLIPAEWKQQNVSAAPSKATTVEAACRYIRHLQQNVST
Assay: relative binding free energy (BET-seq); higher = weaker binding
Settings: reference: library average

Sequence	relative binding free energy
TATTACACGTGAGAAG	0.47 kcal/mol
CGTTTCACGTGCGAGT	0.21 kcal/mol
TACAGCACGTGGGTGG	-0.15 kcal/mol
GGGTACACGTGAATGA	0.4 kcal/mol
ATTTCCACGTGGCGTG	0.06 kcal/mol
TTTTTCACGTGCAATT	0.3 kcal/mol
TTTATCACGTGTTGCG	0.32 kcal/mol
TGGTTCACGTGTTACG	0.24 kcal/mol
ATGGTCACGTGGTCGG	-0.02 kcal/mol
ATAGTCACGTGGCGAT	0.11 kcal/mol
AGCGTCACGTGTTTAG	0.14 kcal/mol
AGATGCACGTGTGTGG	0.02 kcal/mol
TGGGTCACGTGTAGGA	0.13 kcal/mol
ATTGCCACGTGATTTT	-0.01 kcal/mol
GTATACACGTGTTGAA	-0.02 kcal/mol
GTTGACACGTGAAGTA	0.33 kcal/mol
GTGGGCACGTGTTGCC	-0.01 kcal/mol
TGAGTCACGTGTGGAC	0.08 kcal/mol
CGTAACACGTGATGTT	0.24 kcal/mol
TGAGGCACGTGGCGTA	-0.34 kcal/mol
GTCGGCACGTGTATTA	0.19 kcal/mol
CGTTACACGTGTTTGA	0 kcal/mol
GGGTTCACGTGGATAT	0.33 kcal/mol
AAGTGCACGTGAAGTA	0.15 kcal/mol
AGTTGCACGTGTGAAA	0.08 kcal/mol

Sequence	relative binding free energy
TCGGTCACGTGGTGTT	-0.03 kcal/mol
GCTTGCACGTGGATAG	0.02 kcal/mol
CAAGTCACGTGGAGTT	0.13 kcal/mol
GGTGGCACGTGTTGGT	0.11 kcal/mol
AATGTCACGTGTAGTC	0.16 kcal/mol
GTCGGCACGTGCGGGC	-0.05 kcal/mol
TGTGTCACGTGGCTAA	-0.08 kcal/mol
TTTAGCACGTGATAGG	0.06 kcal/mol
GGTTGCACGTGCAGGG	0.1 kcal/mol
TACTTCACGTGGAATT	0.29 kcal/mol
TATAACACGTGGCTGT	-0.02 kcal/mol
TGGGACACGTGAGCTT	0.13 kcal/mol
ACTGTCACGTGTGAAT	0.27 kcal/mol
TAAGGCACGTGAAGAA	0.25 kcal/mol
TAGATCACGTGGATAG	0.18 kcal/mol
GGTGCCACGTGGTCTT	-0.1 kcal/mol
CATGTCACGTGAGGGA	0.14 kcal/mol
GTTGGCACGTGGAGAG	-0.05 kcal/mol
TATGTCACGTGATGTG	0.21 kcal/mol
GGGCGCACGTGCGGTA	-0.12 kcal/mol
AGTAGCACGTGTCGTT	-0.17 kcal/mol
TAGTTCACGTGGGGGT	0.23 kcal/mol
AAGTGCACGTGTGGCT	0.14 kcal/mol
TAGTGCACGTGCGGGT	-0.01 kcal/mol
TGTTACACGTGGACAG	0.14 kcal/mol

Sequence	relative binding free energy
AAGTACACGTGTTTTA	0.19 kcal/mol
TTTTGCACGTGCCGGA	-0.07 kcal/mol
TAATCCACGTGGGTGT	-0.1 kcal/mol
TTGTGCACGTGTGGCT	0.08 kcal/mol
TGGATCACGTGAGAGG	0.37 kcal/mol
TTTGGCACGTGCATAA	-0.22 kcal/mol
ATGGTCACGTGTCTAG	0.06 kcal/mol
TGGGTCACGTGTGACT	0.16 kcal/mol
GGAGACACGTGGTGTT	-0.02 kcal/mol
TTACGCACGTGAAGGG	0.12 kcal/mol
CCTGGCACGTGTGGGT	-0.13 kcal/mol
TGATTCACGTGTGATT	0.36 kcal/mol
GATGGCACGTGCTTGG	0.03 kcal/mol
AAGCTCACGTGTGGAT	0.18 kcal/mol
TTGCACACGTGTGTTT	0.02 kcal/mol
TGGGTCACGTGGTCGT	0.02 kcal/mol
TCTTTCACGTGTGTCA	0.24 kcal/mol
AATGTCACGTGGCGCG	0.01 kcal/mol
AGAATCACGTGGTAGG	0.15 kcal/mol
ATAAACACGTGTTGAT	0.04 kcal/mol
GGCATCACGTGGTAGG	0.08 kcal/mol
GAAGTCACGTGAGTGC	0.39 kcal/mol
TTTGTCACGTGCGTAG	-0.09 kcal/mol
GTGGGCACGTGTGTTA	-0.06 kcal/mol
TGATACACGTGTCGGA	0.11 kcal/mol

Sequence	relative binding free energy
CTGGTCACGTGTTACG	0.17 kcal/mol
TATTACACGTGCATTA	0.13 kcal/mol
ATAGGCACGTGATGAT	-0.11 kcal/mol
GGGGTCACGTGAAGAG	0.26 kcal/mol
TGAGGCACGTGAGCGA	0.06 kcal/mol
AGTGGCACGTGCAAGT	-0.11 kcal/mol
TCGTACACGTGGGGGG	-0.15 kcal/mol
AGATCCACGTGTTGTG	0.08 kcal/mol
TACGTCACGTGTGTGA	0.05 kcal/mol
TGTCTCACGTGAGGAG	0.23 kcal/mol
TTGTCCACGTGGTGAA	-0.03 kcal/mol
TAGTGCACGTGTTCAT	-0.04 kcal/mol
TGTATCACGTGCATGG	0.14 kcal/mol
ATTCGCACGTGTTTGG	-0.07 kcal/mol
AGGGACACGTGTTAGC	0.09 kcal/mol
GATAACACGTGCTGGG	0.09 kcal/mol
GCAAGCACGTGGTGTT	-0.08 kcal/mol
GGGAGCACGTGTAGTG	-0.06 kcal/mol
TAGAGCACGTGGGGGT	-0.22 kcal/mol
CGTAGCACGTGAGAGG	0.15 kcal/mol
ATGGACACGTGTTAAA	0.03 kcal/mol
TTTGTCACGTGGGGTC	-0.06 kcal/mol
GGGTCCACGTGTGGCA	0.23 kcal/mol
TGAAGCACGTGCTGGA	-0.05 kcal/mol
TTATTCACGTGATTTG	0.42 kcal/mol

Sequence	relative binding free energy
TTTACCACGTGGGTGG	-0.21 kcal/mol
GTAGACACGTGGGATG	0.01 kcal/mol
GCAGTCACGTGTGGGC	0.22 kcal/mol
TTAGACACGTGGGTGA	-0.09 kcal/mol
AATTACACGTGTGGGA	-0.02 kcal/mol
TTGATCACGTGAATTA	0.29 kcal/mol
TAAAACACGTGTGTTG	-0.09 kcal/mol
AAGGTCACGTGCGATG	0.16 kcal/mol
ATGATCACGTGGGGAA	0.01 kcal/mol
GTGTGCACGTGTCATG	-0.08 kcal/mol
TTCAGCACGTGATGTT	-0.04 kcal/mol
GGTCTCACGTGGTTCT	0.29 kcal/mol
GGATTCACGTGTGGTG	0.33 kcal/mol
TGTTGCACGTGAATTG	0.23 kcal/mol
AAGACCACGTGAGGGG	0.18 kcal/mol
AAAGTCACGTGCATTG	0.18 kcal/mol
TGCGGCACGTGTTCGG	-0.13 kcal/mol
ACATGCACGTGTATTG	-0.03 kcal/mol
TTAGACACGTGGCATG	-0.01 kcal/mol
TCTCTCACGTGGGGGT	0.15 kcal/mol
GTTTGCACGTGGCTCT	-0.04 kcal/mol
TGGGTCACGTGATCAG	0.24 kcal/mol
ATCTTCACGTGCTTGT	0.21 kcal/mol
ATCTGCACGTGATTTG	0.06 kcal/mol
CTGGGCACGTGATTGT	-0.1 kcal/mol

Sequence	relative binding free energy
TTAGTCACGTGAAGGG	0.37 kcal/mol
GGAATCACGTGTGGCA	0.13 kcal/mol
GGATTCACGTGGTCAG	0.22 kcal/mol
ATATGCACGTGTGGGG	-0.06 kcal/mol
TTAGGCACGTGGCATT	-0.27 kcal/mol
CGGGGCACGTGTGGCC	-0.07 kcal/mol
TTGGTCACGTGTAGGT	0.2 kcal/mol
GGGAGCACGTGAAAGG	0.18 kcal/mol
AGTCGCACGTGCGTGT	-0.06 kcal/mol
AAGCGCACGTGGGGGC	-0.15 kcal/mol
TTGTACACGTGGCTGG	-0.03 kcal/mol
CAGAGCACGTGGGGAG	-0.14 kcal/mol
TTATGCACGTGCGGGA	-0.04 kcal/mol
GGAATCACGTGTCAGT	0.25 kcal/mol
GGTAACACGTGGCGTT	-0.1 kcal/mol
TCGGTCACGTGCTTTG	0.18 kcal/mol
GTCGACACGTGAGTTG	0.3 kcal/mol
TTAGGCACGTGGGAAC	-0.23 kcal/mol
ATAGACACGTGTGTAT	0.14 kcal/mol
ATTGACACGTGACGTG	0.05 kcal/mol
TTTTACACGTGTGATG	0.11 kcal/mol
